Reference: the supplement of paper PMC3334620
The full ranking holds about 33,000 sequences; the median of “E-score (-0.5 to 0.5)” is about -0.021, and the highest 2% start at about 0.32. Some of the results follow.

What follows are sequences tested against T1, Zap1 (UniProt P47043) (assay: PBM E-score (8-mer binding enrichment) (E-score (-0.5 to 0.5)); higher = stronger / more preferred TF binding; most listed sequences are background and not binding sites). Conditions: protein concentration: 200 nM; construct: GST-full length.
T1 sequence: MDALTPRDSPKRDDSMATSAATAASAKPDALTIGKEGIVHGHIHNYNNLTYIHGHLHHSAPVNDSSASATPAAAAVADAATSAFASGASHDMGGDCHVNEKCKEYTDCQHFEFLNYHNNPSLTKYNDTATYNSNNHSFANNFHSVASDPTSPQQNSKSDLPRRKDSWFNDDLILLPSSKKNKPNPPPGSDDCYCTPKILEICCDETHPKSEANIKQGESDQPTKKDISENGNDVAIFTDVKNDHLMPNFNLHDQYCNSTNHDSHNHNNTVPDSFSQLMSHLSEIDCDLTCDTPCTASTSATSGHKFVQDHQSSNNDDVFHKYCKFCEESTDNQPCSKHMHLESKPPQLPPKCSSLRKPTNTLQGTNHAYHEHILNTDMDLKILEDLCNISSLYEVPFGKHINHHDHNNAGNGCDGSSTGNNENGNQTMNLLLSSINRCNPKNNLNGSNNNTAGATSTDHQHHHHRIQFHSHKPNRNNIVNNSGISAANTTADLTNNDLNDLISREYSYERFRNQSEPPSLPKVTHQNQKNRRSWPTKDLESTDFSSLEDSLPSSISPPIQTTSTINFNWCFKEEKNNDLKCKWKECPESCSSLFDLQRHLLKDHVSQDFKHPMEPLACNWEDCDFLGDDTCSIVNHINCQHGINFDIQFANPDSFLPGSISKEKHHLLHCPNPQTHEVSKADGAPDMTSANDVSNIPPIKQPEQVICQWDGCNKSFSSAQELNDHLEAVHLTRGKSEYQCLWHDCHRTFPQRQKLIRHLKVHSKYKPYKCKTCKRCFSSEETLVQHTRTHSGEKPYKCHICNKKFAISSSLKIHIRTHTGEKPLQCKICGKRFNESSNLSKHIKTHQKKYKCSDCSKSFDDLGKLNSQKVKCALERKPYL
Method in brief: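 Yeast transcription factors, full-length or as DNA-binding domains, were expressed with a GST tag using PURExpress in vitro transcription/translation. At about 100-200 nM they were applied to universal all-10-mer Agilent arrays, double-stranded by primer extension on fresh or once-stripped slides. Fluorescent anti-GST detected bound protein, and masliner normalised the scans. E-scores for ungapped eight-base words, pooled with reverse complements, came from the Universal PBM Analysis Suite.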

Sequence	PBM E-score
GCCGACAA	-0.0426
ATCTTTGA	-0.0224
CTTCAGCA	-0.157
AAGACTAG	-0.27
GTCTTGAA	-0.0661
AAGCCCGT	-0.309
TAAAAACA	0.127
GCACAGCC	-0.115
ACCCGATG	0.159
CCAAACGC	0.0262
TGGGTAAA	0.0903
AATGGGAG	-0.174
CGGCGACA	-0.195
ACGTTGTG	0.0775
ACGTCTCC	-0.235
GAGAAATC	-0.0624
GACTCCGA	-0.203
AATAAACA	0.127
AGGTGGGA	-0.136
GGCATATA	0.013
ACCGCTGA	0.13
ACCTCGAC	0.218
CTAGGGTA	0.411
GTTCCAAA	0.267
AGGACACC	0.25

Sequence	PBM E-score
ATTCTATC	-0.0944
AATCGGTG	-0.238
AATAGCAG	-0.164
GATCATGC	-0.0731
CGAGGAGA	-0.266
ATCTGTGC	-0.175
ACAGCGCG	0.0244
AAGGCAAG	-0.139
AGGAAGTC	-0.137
AAGTCAGT	-0.08
AGTAGATA	0.17
CGCGCCTC	-0.128
AGTAATGA	0.0711
GCCCGACC	-0.125
AGTTGCCC	-0.0517
AGCCCACC	0.028
GGGAAAAA	0.00088
ACATTGAT	0.0783
CAGAGGTC	0.286
CTGATTCC	-0.071
GAGGGCGA	-0.283
AAGCACGA	-0.12
CACGCCAC	-0.234
CGTCACGC	-0.019
AAAACAAA	0.271

Sequence	PBM E-score
AATAGTTG	0.176
GCATTTAC	-0.156
CCCGATCC	-0.148
ACACCAAA	0.302
GCACGTGC	-0.193
GCTGGAAC	-0.109
CGGATTCC	-0.0353
AGGTAACC	0.441
CCGTCTGC	-0.145
AGCCAAAT	-0.0282
AAATGTCG	-0.106
TATTACAA	0.133
ATGCGGTA	0.213
ACAACGAG	0.0286
AATCTCAT	0.0935
CAGTCACA	-0.0935
CTAGGGGA	0.125
ACTCACGA	-0.0773
ATTTTTAG	0.0742
CTCGACAG	-0.22
CACAATCC	0.166
AAGGAGCA	-0.227
CTGGTGTC	0.00053
TCGTCGCA	-0.0866
AACGAACT	-0.0922

Sequence	PBM E-score
CGGAAAGA	-0.00377
GAGCTGCC	-0.318
CCAAACTA	0.206
GACACTGC	0.0132
ATCGGTTG	0.0684
ATGAGGCG	-0.268
CTGGGGGC	-0.276
ACGATAGT	-0.0206
TGATCACA	0.245
GGAGTTCA	-0.131
AGCAATGA	-0.118
AGCAACGG	0.00738
CCTACGTA	-0.211
AAATGGCG	-0.0647
CTGGATCA	-0.136
CGAATTCA	-0.0127
TAGAACTA	-0.034
CGGCAATA	-0.0167
AGCCAGGC	-0.246
ATCCTACC	-0.0654
CTCGCAGA	-0.219
AGCCGGTG	-0.0008
AGGTGATC	0.206
GAGGGTAC	0.374
ACGTCCAT	0.00455

Sequence	PBM E-score
ACTAATGA	0.0348
GGAATTGA	0.00558
ATTGAAAC	0.115
TCCGCTCA	-0.267
CACTCGTA	-0.156
ACGTATTA	0.168
GGGTTACA	0.468
GCACCTTA	0.112
CAGGATTC	-0.118
AGCGCAGG	-0.19
ACAGTCTC	-0.289
CGGCCACG	0.113
CGATCACG	0.116
CGCGAAGC	-0.0242
CAGCAGGC	-0.0691
CGGACTAC	-0.0551
ACTTAGAG	-0.121
GTAGTCGA	-0.0355
AGTACATG	0.0226
GGGTGTAC	0.105
ACCTGACA	0.178
ACTATGTG	-0.0917
ATTACTGG	-0.164
CCCAGTCA	-0.208
CCGGATCC	-0.268

Sequence	PBM E-score
CAGCGGTC	-0.0186
ACTTCCGG	-0.0978
ACCTGAAA	0.205
AAGGGAGC	-0.0653
AAGCATGT	-0.087
GATAAAGC	-0.0674
CAAACGAA	0.138
AGTGGTCA	0.197
ATGAGGTC	0.226
AACAAACT	0.152
CCACCCGG	-0.0636
ACTCAAAG	0.154
CCTCGACC	-0.056
CTCAGCGA	-0.0401
AAGCGTGA	-0.0199
CCGGATGA	-0.0526
AGCAAGCC	-0.304
CTACCGAG	0.0402
ACATGCAG	0.0917
CTTTAATA	0.201
AGACAAAC	-0.0937
CGTCGAAC	-0.196
CTAGTGGC	-0.0328
AATAGGCC	-0.0456
AACAGGTA	0.226

Sequence	PBM E-score
CAGTTCCG	-0.0834
ATGAGTCC	-0.0978
ATAAGCGC	-0.101
AAATTTGG	-0.0258
GCCAGTCC	-0.145
AGAGCCAT	0.0165
AGACCCCG	0.251
CTGCACTC	-0.0172
CCCACGTC	-0.213
CTTGCACA	0.0573
GACAAAGC	-0.143
AATGAGGG	-0.0229
CGCGGCAG	-0.049
AGCCCGAC	-0.0908
ACCTATCT	0.0828
ACTGTTTC	-0.197
GACCCCTA	0.276
GATCGAGC	-0.0441
AGCCTAAG	-0.216
TATCGATA	0.285
ACCTGGAT	-0.057
GGAGTAGA	-0.044
